Assay results reported in the supplement of paper PMC10126150.
Sequences with one replicate were seen in a single cluster, so their values are uncertain.

tested on: ATP; test: switch fluorescence ratio, 500 uM ATP over buffer (Cy3 cluster intensity, sum of 5 cycles each) (fold (ratio)); higher = stronger signal-on switching upon ATP binding; sequences stand for … in TCGTCGGCAGCGTCAGATGTGTATAAGAGACAGTTTTTTTTTTTTTTTTTTTTTTTTT…TC; settings: aptamer strand: ATP DNA aptamer (quencher-CACCTGGGGGAGTATTGCGGAGGAAGG + anchor), 100 nM annealed; ATP concentration: 500 uM; one replicate
Procedure, shortened: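 Clusters carrying Cy3-labelled switching strands on a modified Illumina MiSeq flow-cell were annealed to 100 nM quencher-labelled ATP aptamer and imaged in selection buffer. They were imaged again after 15 min with 500 uM ATP at 22 °C, over five buffer/ATP cycles with NaOH stripping and re-annealing in between. For each cluster, the fluorescence ratio is the summed Cy3 intensity of the target cycles divided by that of the buffer cycles, averaged per switch-domain sequence. Clusters outside 100-1000 RFU were left out.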
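Note: ATP exposure 15 min at 22 °C before imaging.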

Sequence | switch fluorescence ratio
ACTAGGGGGT | 1.01
ACTATCAACT | 1.03
ACTATGGCTA | 0.986
ACTATTAAAT | 1.01
ACTATTCCCC | 1.07
ACTATTCTGA | 0.959
ACTCAGCAAA | 3.37
ACTCAGCTCG | 1.08
ACTCAGTACG | 1.11
ACTCAGTTGA | 1.03
ACTCCAAA | 1.35
ACTCCGTATT | 4.41
ACTCCTGGAA | 2.6
ACTCGAACCA | 1.07
ACTCGCTAAT | 1.52
ACTCGCTATA | 3.3
ACTCGCTCTG | 1.09
ACTCGGGCCC | 0.998
ACTCGTATTC | 1.1
ACTCGTTTGA | 1.04
ACTCGTTTT | 1.02
ACTCTAGACA | 1.13

Sequence | switch fluorescence ratio
ACTCTCTTAA | 0.982
ACTCTGAATA | 1.42
ACTCTGAATT | 1.08
ACTCTGCTCG | 1.07
ACTCTGGAGG | 1.01
ACTCTTAACC | 1.08
ACTCTTGATG | 0.978
ACTCTTTTAG | 1.06
ACTGAACGTG | 1.23
ACTGAATAGT | 1.02
ACTGACACTT | 1.23
ACTGAGCGGG | 1.01
ACTGAGGTAG | 1.07
ACTGCCCC | 1.29
ACTGCCGGAG | 1.12
ACTGGAAAGC | 0.951
ACTGGAGACA | 1.08
ACTGGAGTTC | 0.976
ACTGGATCTT | 1.05
ACTGGATTCA | 1.02
ACTGGCCAGA | 0.988
ACTGGCTTGC | 1.04

Sequence | switch fluorescence ratio
ACTGGGAGTA | 1.04
ACTGGGGCAC | 0.998
ACTGGGTCGG | 0.994
ACTGGTGTCT | 1.05
ACTGGTTGGT | 1.01
ACTGTATGCG | 1.06
ACTGTCTCTA | 1.07
ACTGTCTTAT | 0.963
ACTGTTCGTC | 0.998
ACTGTTGAGC | 0.988
ACTGTTTAGT | 0.968
ACTGTTTGCC | 1.3
ACTTAAATT | 0.998
ACTTACAATC | 1.28
ACTTACCGAT | 1.15
ACTTATCA | 1.04
ACTTATTAAC | 1.03
ACTTCAAACC | 1.11
ACTTCGGCTT | 1.02
ACTTCTCCTT | 1.04
ACTTCTTTTA | 1.02
ACTTGACTCC | 1.35

Sequence | switch fluorescence ratio
ACTTGAGCAC | 2.66
ACTTGAGGAA | 0.954
ACTTGAGGC | 1.05
ACTTGATGTT | 1.05
ACTTGATTCG | 1.01
ACTTGGAGTA | 0.987
ACTTGTCCTG | 1.01
ACTTTAATCG | 1.01
ACTTTCTGCC | 0.977
ACTTTGAGGG | 1.04
ACTTTGATCG | 1
ACTTTGCGAA | 1.14
ACTTTGGTTC | 0.932
ACTTTGTTCA | 1.05
ACTTTTCATC | 1
ACTTTTGACA | 1.01
ACTTTTTTCA | 0.992
AGAAAAATAG | 0.955
AGAAAAATCA | 0.981
